The supplement of paper PMC8728848
Some of the results follow.

Assays:
Assay in all cases: glycan array binding signal (z-score within array); higher = stronger binding
Conditions in all cases: glycan notation: IUPAC condensed, linker removed
[1] = target: Gal(b1-4)GlcNAc(b1-3)GalNAc
In short: (§1)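 From the Consortium for Functional Glycomics database, 3228 arrays were curated, keeping only those whose protein sequence was available. Binding is given as a within-array Z-score averaged across arrays sharing a protein sequence and across linkers. Negative Z-scores can be read as non-binding.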

[2] = target: Gal(b1-4)GlcNAc(b1-3)[Gal(b1-4)GlcNAc(b1-6)]GalNAc
In short: as §1

[3] = target: Gal(b1-4)GlcNAc(b1-6)Gal(b1-4)GlcNAc(b1-6)GalNAc
In short: as §1

[4] = target: Gal(b1-4)GlcNAc(b1-6)GalNAc
In short: as §1

[5] = target: Gal(b1-4)GlcNAc(b1-6)[Gal(b1-3)]GalNAc
In short: as §1

[6] = target: Gal3S(b1-3)GalNAc
In short: as §1

[7] = target: Gal3S(b1-3)GlcNAc
In short: as §1

[8] = target: Gal3S(b1-3)[Fuc(a1-4)]GlcNAc
In short: as §1

[9] = target: Gal3S(b1-4)Glc
In short: as §1

[10] = target: Gal3S(b1-4)Glc6S
In short: as §1

[11] = target: Gal3S(b1-4)GlcNAc
In short: as §1

[12] = target: Gal3S(b1-4)GlcNAc6S
In short: as §1

[13] = target: Gal3S6S(b1-4)GlcNAc
In short: as §1

[14] = target: Gal3S6S(b1-4)GlcNAc6S
In short: as §1

[15] = target: Gal4S(b1-4)GlcNAc
In short: as §1

[16] = target: Gal4S6S(b1-4)GlcNAc
In short: as §1

[17] = target: Gal6S(b1-4)Glc
In short: as §1

[18] = target: Gal6S(b1-4)Glc6S
In short: as §1

[19] = target: Gal6S(b1-4)GlcNAc
In short: as §1

[20] = target: GalNAc(a1-3)Gal
In short: as §1

[21] = target: GalNAc(a1-3)GalNAc
In short: as §1

[22] = target: GalNAc(b1-3)Gal(a1-4)Gal(b1-4)GlcNAc
In short: as §1

[23] = target: GalNAc(b1-3)GalNAc
In short: as §1

[24] = target: GalNAc(b1-4)GlcNAc
In short: as §1

[25] = target: Glc(a1-4)Glc
In short: as §1

[26] = target: Glc(a1-6)Glc(a1-6)Glc
In short: as §1

[27] = target: Glc(b1-4)Glc
In short: as §1

[28] = target: Glc(b1-6)Glc
In short: as §1

[29] = target: GlcA(b1-3)Gal
In short: as §1

[30] = target: GlcA(b1-6)Gal
In short: as §1

[31] = target: GlcNAc(a1-3)Gal(b1-4)GlcNAc
In short: as §1

[32] = target: GlcNAc(a1-6)Gal(b1-4)GlcNAc
In short: as §1

[33] = target: GlcNAc(b1-2)Gal(b1-3)GalNAc
In short: as §1

[34] = target: GlcNAc(b1-2)Man(a1-3)[GlcNAc(b1-2)Man(a1-6)]Man(b1-4)GlcNAc(b1-4)GlcNAc
In short: as §1

[35] = target: GlcNAc(b1-3)Gal
In short: as §1

[36] = target: GlcNAc(b1-3)Gal(b1-3)GalNAc
In short: as §1

[37] = target: GlcNAc(b1-3)Gal(b1-4)Glc
In short: as §1

[38] = target: GlcNAc(b1-3)Gal(b1-4)GlcNAc
In short: as §1

[39] = target: GlcNAc(b1-3)Gal(b1-4)GlcNAc(b1-3)Gal(b1-4)GlcNAc
In short: as §1

[40] = target: GlcNAc(b1-3)GalNAc
In short: as §1

[41] = target: GlcNAc(b1-3)[GlcNAc(b1-6)]Gal(b1-4)GlcNAc
In short: as §1

[42] = target: GlcNAc(b1-3)[GlcNAc(b1-6)]GalNAc
In short: as §1

[43] = target: GlcNAc(b1-3)[GlcNAc(b1-6)]GlcNAc(b1-4)GlcNAc
In short: as §1

[44] = target: GlcNAc(b1-4)Gal(b1-4)GlcNAc
In short: as §1

[45] = target: GlcNAc(b1-4)GlcNAc(b1-4)GlcNAc
In short: as §1

[46] = target: GlcNAc(b1-4)GlcNAc(b1-4)GlcNAc(b1-4)GlcNAc(b1-4)GlcNAc
In short: as §1

[47] = target: GlcNAc(b1-4)GlcNAc(b1-4)GlcNAc(b1-4)GlcNAc(b1-4)GlcNAc(b1-4)GlcNAc
In short: as §1

[48] = target: GlcNAc(b1-4)[GlcNAc(b1-6)]GalNAc
In short: as §1

[49] = target: GlcNAc(b1-6)Gal(b1-4)GlcNAc
In short: as §1

[50] = target: GlcNAc(b1-6)GalNAc
In short: as §1

[51] = target: Kdn(a2-3)Gal(b1-3)GlcNAc
In short: as §1

[52] = target: Kdn(a2-3)Gal(b1-4)GlcNAc
In short: as §1

[53] = target: Man(a1-2)Man(a1-2)Man(a1-3)Man
In short: as §1

[54] = target: Man(a1-2)Man(a1-2)Man(a1-6)[Man(a1-3)]Man
In short: as §1

[55] = target: Man(a1-2)Man(a1-3)Man
In short: as §1

[56] = target: Man(a1-2)Man(a1-3)[Man(a1-2)Man(a1-6)]Man
In short: as §1

[57] = target: Man(a1-2)Man(a1-3)[Man(a1-2)Man(a1-6)]Man(a1-6)[Man(a1-2)Man(a1-2)Man(a1-3)]Man(b1-4)GlcNAc(b1-4)GlcNAc
In short: as §1

[58] = target: Man(a1-2)Man(a1-3)[Man(a1-6)]Man(a1-6)[Man(a1-2)Man(a1-3)]Man(b1-4)GlcNAc(b1-4)GlcNAc
In short: as §1

[59] = target: Man(a1-2)Man(a1-6)[Man(a1-3)]Man(a1-6)[Man(a1-2)Man(a1-2)Man(a1-3)]Man(b1-4)GlcNAc(b1-4)GlcNAc
In short: as §1

[60] = target: Man(a1-3)[Man(a1-6)]Man
In short: as §1

[61] = target: Man(a1-3)[Man(a1-6)]Man(a1-6)[Man(a1-2)Man(a1-3)]Man(b1-4)GlcNAc(b1-4)GlcNAc
In short: as §1

[62] = target: Man(a1-3)[Man(a1-6)]Man(a1-6)[Man(a1-3)]Man(b1-4)GlcNAc(b1-4)GlcNAc
In short: as §1

[63] = target: Man(a1-3)[Man(a1-6)]Man(b1-4)GlcNAc(b1-4)GlcNAc
In short: as §1

[64] = target: Man(b1-4)GlcNAc
In short: as §1

[65] = target: Neu5Ac(a2-3)Gal
In short: as §1

[66] = target: Neu5Ac(a2-3)Gal(b1-3)GalNAc
In short: as §1

[67] = target: Neu5Ac(a2-3)Gal(b1-3)GalNAc(b1-3)Gal(a1-4)Gal(b1-4)Glc
In short: as §1

[68] = target: Neu5Ac(a2-3)Gal(b1-3)GalNAc(b1-3)Gal(b1-4)GlcNAc
In short: as §1

[69] = target: Neu5Ac(a2-3)Gal(b1-3)GalNAc(b1-4)[Neu5Ac(a2-3)]Gal(b1-4)Glc
In short: as §1

[70] = target: Neu5Ac(a2-3)Gal(b1-3)GalNAc6S
In short: as §1

[71] = target: Neu5Ac(a2-3)Gal(b1-3)GlcNAc
In short: as §1

[72] = target: Neu5Ac(a2-3)Gal(b1-3)GlcNAc6S
In short: as §1

[73] = target: Neu5Ac(a2-3)Gal(b1-3)[Fuc(a1-4)]GlcNAc
In short: as §1

[74] = target: Neu5Ac(a2-3)Gal(b1-3)[Fuc(a1-4)]GlcNAc(b1-3)Gal(b1-4)[Fuc(a1-3)]GlcNAc
In short: as §1

[75] = target: Neu5Ac(a2-3)Gal(b1-3)[Neu5Ac(a2-3)Gal(b1-4)]GlcNAc
In short: as §1

Measured: glycan array binding signal (z-score)

B1: PA-IL (Pseudomonas aeruginosa) (protein)
chain: AWKGEVLANNEAGQVTSIIYNPGDVITIVAAGWASYGPTQKWGPQGDREHPDQGLICHDAFCGALVMKIGNSGTIPVNTGLFRWVAPNNVQGAITLIYNDVPGTYGNNSGSFSVNIGKDQS
-0.361: [19]
-0.364: [8] | [9] | [14] | [18] | [34] | [41] | [59] | [74]
1.89: [21]
-0.306: [22]
1.6: [20]
-0.357: [57]
-0.363: [32] | [42]
-0.248: [53]
-0.354: [49]
0.234: [3]
0.323: [2]
-0.219: [4]
-0.355: [1]
-0.365: [6] | [7] | [10] | [11] | [12] | [13] | [15] | [16] | [17] | [23] | [24] | [25] | [26] | [27] | [28] | [29] | [30] | [31] | [33] | [35] | [37] | [38] | [39] | [40] | [43] | [44] | [45] | [46] | [47] | [48] | [50] | [51] | [52] | [54] | [55] | [56] | [58] | [60] | [61] | [62] | [63] | [64] | [65] | [66] | [67] | [68] | [69] | [70] | [71] | [72] | [73] | [75]
0.192: [5]
-0.309: [36]
